About 4,200 (1.3%) of roughly 330,000 compounds were called active. The shares of active, inactive and inconclusive entries below differ from those in the screen. Calls come from the whole dose curve; as a rule, active = well fitted activation curve with a large enough effect; inconclusive = small, poorly fitted or top-dose-only effect; inactive = no such curve, though single readings can be large or run the other way. Potencies of inconclusive entries are doubtful fits and often do not repeat.
Experiment: qHTS screen for small molecules that induce genotoxicity in human embryonic kidney (HEK293T) cells expressing luciferase-tagged ELG1; note: nearly all actives have a fitted effect of over 60% in size
Settings: HEK293T ELG1-luciferase reporter, luminescence, 16 h; series mostly up to 46 µM
Outline: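 Quantitative HTS format in 1536-well plates. HEK293T ELG1-luciferase reporter cells receive test compound and are incubated 16 hr at 37 °C, 5% CO2; ONE-Glo added, 30 min room temperature, then luminescence read.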
Potency is the fitted concentration of half-maximal effect; tags give direction and shape of the fitted curve.

SMILES | Potency
C=C(c1ccc(OC)cc1)c1ccc(OC)cc1 | inconclusive: 32.6 µM [activator, partial curve, poor fit]
O=C(COC(=O)c1ccc(F)cc1F)c1ccc[nH]1 | inactive
C=CCn1cccc(C(=O)Nc2ccc(C)cc2)c1=O | inconclusive: 16.4 µM [activator, partial curve, poor fit]
COc1ccccc1-c1nnc(SCC(=O)NC2CCS(=O)(=O)C2)n1N (stereo not drawn) | inactive
Cc1cc(C(=O)CN2C(=O)CCC2=O)c(C)n1Cc1ccccc1 | inconclusive: 16.4 µM [activator, partial curve, poor fit]
Cc1cnc(-c2nnc(N(C)C(=O)C3CCOC3)s2)cn1 (stereo not drawn) | inconclusive: 20.6 µM [activator, partial curve, poor fit]
COC(=O)Nc1ccc(S(=O)(=O)N2CCCC(C(=O)Nc3cccnc3)C2)cc1 (stereo not drawn) | inactive
Cc1ccccc1OCc1nc(-c2ccc(NC(=O)c3ccco3)cc2)no1 | inconclusive: 29.1 µM [activator, single point]
Cc1ccc(-c2nnc(N3CCC(C)CC3)c3ccccc23)cc1 | inactive
NS(=O)(=O)c1ccc(Cl)cc1[N+](=O)[O-] | inactive
CCN(CC(=O)Nc1ccc2c(c1)OCCO2)C(=O)/C=C/c1ccc(OC)cc1OC | inconclusive: 18.3 µM [activator, partial curve, poor fit]
Cc1ccc(NC(=S)NC(=O)C2CCCCC2)c(Br)c1 | inconclusive: 5.8 µM [activator, full curve, poor fit]
O=C(N/N=C\c1ccc(CNS(=O)(=O)c2ccc(Cl)cc2)o1)C(=O)Nc1ccc(Oc2ccccc2)cc1 | inconclusive: 25.9 µM [activator, partial curve, poor fit]
Cc1cccc(NC(=O)c2ccc3ccccc3n2)n1 | inconclusive: 2.59 µM [activator, full curve, poor fit]
COC(=O)c1cc(S(=O)(=O)N2CCN(c3cccc(C)c3)C(C)C2)c[nH]1 (stereo not drawn) | inactive
Cc1ccc(C)c(N(CC(=O)NCCSCc2ccco2)S(C)(=O)=O)c1 | inactive
COc1cccc(NC(=O)C(=O)NCCCN2CCCC2=O)c1 | inconclusive: 14.6 µM [activator, partial curve]
CO/N=C/CC(=O)c1cnc(-c2ccc(Cl)cc2)s1 | inconclusive: 11.2 µM [activator, partial curve, poor fit]
O=C1CCN(Cc2ccccc2)CCN1CCSc1ccccc1 | inconclusive: 18.3 µM [activator, partial curve]
COc1cc2ccccc2cc1C(=O)Nc1ccc(O)cc1 | active: 10.3 µM
Cc1ccc(C(=O)NNC(=O)COC(=O)COc2ccccc2C#N)cc1 | inactive
O=C(NCc1ccc2c(c1)OCO2)c1cc(-c2ccc(Cl)cc2Cl)on1 | inactive
O=C(OCC(=O)N1CCN(C(=O)c2ccco2)CC1)c1cn(-c2ccccc2)nc1-c1ccccc1 | inactive
Cc1c(C(=O)Nc2ccc3c(c2)OCCO3)cnn1C | active: 3.66 µM

SMILES | Potency
COc1ccc(NC(=O)c2cc3ccccn3n2)cc1 | active: 1.16 µM
CCOC(=O)c1c(C)[nH]c(C)c1C(=O)CSc1nc2ccccc2n1CCOC | inactive
COc1ccc(S(=O)(=O)N2c3cc(Cl)ccc3Oc3nc4ccccc4nc32)cc1 | inconclusive: 7.31 µM [activator, partial curve, poor fit]
C=CC[n+]1c(C)csc1Nc1ccc(C(=O)O)cc1 | inactive
COc1ccc(C(=O)NC(=S)SCC(=O)O)cc1 | inactive
COc1ccc2nc(NC(=O)c3ccoc3C)sc2c1 | inconclusive: 0.366 µM [activator, full curve, poor fit]
Cc1ccc(C(=O)CNc2ccccc2C)cc1 | inconclusive: 29.1 µM [activator, partial curve, poor fit]
Cc1ccccc1OC(C)C(=O)Nc1ccc2c(c1)OCCO2 (stereo not drawn) | inconclusive: 18.3 µM [activator, partial curve, poor fit]
CCNC(=O)CCCOc1ccc(Cl)cc1Cl | inconclusive: 18.4 µM [activator, partial curve, poor fit]
COCCOC(=O)C1=C(C)NC(=O)NC1c1ccc(OC(=O)c2ccco2)c(OC)c1 (stereo not drawn) | inconclusive: 29.1 µM [activator, partial curve, poor fit]
Cc1cc(C(=O)NN=C2CCCCCCC2)c2ccccc2n1 | inactive
O=C(NCCN1CCN(C(=O)c2c(F)cccc2F)CC1)C(=O)Nc1ccc(Cl)cc1 | inactive
CCCCCC(=O)Nc1ccc2oc(-c3cncc(Br)c3)nc2c1 | inconclusive: 2.06 µM [activator, full curve, poor fit]
O=C(NCC(=O)N1CCCC(C(F)(F)F)C1)c1ccccc1F (stereo not drawn) | inconclusive: 16.4 µM [activator, partial curve]
COCCCN(C(=O)CC1OC(=O)c2ccccc21)c1c(N)n(Cc2ccccc2)c(=O)[nH]c1=O (stereo not drawn) | inactive
O=C(COc1ccccc1)N1CCN(C(=O)c2ccc([N+](=O)[O-])cc2)CC1 | inconclusive: 2.59 µM [activator, partial curve]
COc1ccc(/C=N/Nc2ccccn2)c(OC)c1OC | inconclusive: 9.2 µM [activator, partial curve, poor fit]
COc1ccccc1CNCCS(=O)(=O)NN1CCOCC1 | inactive
O=C(CSc1nnc(NCc2ccccc2)s1)c1ccco1 | inactive
Fc1ccc(CSc2ccc(-c3cccs3)nn2)cc1 | inconclusive: 20.6 µM [activator, partial curve, poor fit]
O=C(Cc1ccccc1[N+](=O)[O-])OCC(=O)c1ccccc1Br | inactive
CC(C)c1ccc(OCc2ccc(C(=O)NN3CCN(C)CC3)o2)cc1 | inconclusive: 10.3 µM [activator, partial curve, poor fit]
Cc1ccc(N(C(=O)c2snc(C(N)=O)c2N)C(C(=O)NCc2ccccc2)c2ccncc2)c(C)c1 (stereo not drawn) | inactive
O=C(N/N=C/c1ccc(O)cc1)c1cccc(N/N=C/c2ccc(O)cc2)c1 | inconclusive: 7.3 µM [activator, partial curve, poor fit]
